This is an account of results in PubChem BioAssay AID1963576 (National Center for Advancing Translational Sciences (NCATS), 2024).

The whole screen tested about 46,000 compounds, of which about 60 (0.1%) were called active. Roughly 3% stayed inconclusive and do not appear here. Calls come from the whole dose curve; as a rule, active = well fitted inhibition curve with a large enough effect; inconclusive = small, poorly fitted or top-dose-only effect; inactive = no such curve, though single readings can be large or run the other way. The list shows a part of the results.

A short description of the test: Primary qHTS assay for Inhibitors of ovarian cancer metastasis using an organotypic tumor microenvironment (TME) model.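 For activity change, negative = inhibition: plate controls were DMSO wells for no effect and tomatine positive control wells for full effect.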 Note: nearly all actives have a fitted effect of over 65% in size. The following applies: SKOV3ip1-GFP adhesion/invasion on 3D omental model, fluorescence; series mostly up to 45.8 µM; activity change, negative = inhibition: at the top concentration. In short, it runs like this: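 Primary human omental fibroblast/mesothelial 3D culture pre-formed 48 h. SKOV3ip1-GFP cells added with compounds (0.36-46 umol/L), incubated 2 h RT/16 h 37 C, fixed; GFP cells quantified at 488/509 nm.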
Regarding `CC(=O)N1c2ccc(S(=O)(=O)N3CCC(C(=O)Nc4cccc(Cl)c4C)CC3)cc2CC1C` (stereo unspecified), the “activity change, negative = inhibition” value was inactive: 10.6%.
With `CN(C)c1ccc(CNC(=O)Cc2ccc(NC(=O)N3CCCCc4ccccc43)cc2)cc1`, the “activity change, negative = inhibition” value is inactive: 0.0366%.
Same read-out and setting: then `Cc1ccccc1OC(=O)c1nc(SCc2ccccc2F)ncc1Cl`, with inactive: 1.88%; and `COc1ccc(N2CCN(CCCNC(=O)c3nnc(Cc4ccc(F)cc4)o3)CC2)cc1`, with inactive: -4.63%.
`CCOC(=O)Cn1c(=O)n(-c2cccc(Cl)c2)c2nc(-c3ccccc3Cl)nc(C(N)=O)c21`: the “activity change, negative = inhibition” value is inactive: 14.1%.
With `CCc1ccc2ncc3c(-c4ccc(F)cc4)nn(CC(=O)NC4CCCCC4)c3c2c1`, the molecule was classed as inactive.
`Cc1ccc2c(CC(=O)Nc3ccc(S(=O)(=O)N4CCCCC4C)cc3)coc2c1C` (stereo unspecified): the “activity change, negative = inhibition” value is inactive: -23%.
As for `COc1ccc(N2CCN(C(=O)c3cc4c(=O)oc5ccc(C)cc5c4s3)CC2)cc1`, the outcome was inactive.
Turning to `Cc1c(C)n(Cc2ccccc2)c2ccc(C(=O)NCC(C)c3ccccc3)cc12` (stereo unspecified), the call was inactive.
With `Cc1ccc(N2CCN(S(=O)(=O)c3nnc(NC(=O)c4ccccc4)s3)CC2)cc1`, the “activity change, negative = inhibition” value is inactive: 5.76%.
Still for that read-out and setting: then `O=C(Cn1cnc2nc3c(cc2c1=O)CCCC3)Nc1ccc(F)cc1Cl`, with inactive: 9.95%; and `CCOCCc1nnc(NC(=O)C(=O)c2cc(C)n(-c3ccc(C)c(C)c3)c2C)s1`, with inactive: 6.81%; and `Cc1ccc(C)c(N2CCN(c3nc4ccc(C)cc4nc3-n3nc(C)cc3C)CC2)c1`, with inactive: -13.9%.
As for `O=C(Nc1ccccc1C(=O)OCc1cc(=O)n2nc(C3CC3)sc2n1)c1ccc(Cl)cc1`, the “activity change, negative = inhibition” value was inactive: 3.17%.
Consider `Cc1cc(C)n(CCC(=O)Nc2ccc(Cl)cc2)n1`, for which the “activity change, negative = inhibition” value is inactive: 4.61%.
As for `CCOc1ccc(N2CC(NC(=O)c3ccc4c(c3)OCO4)CC2=O)cc1` (stereo unspecified), the “activity change, negative = inhibition” value is inactive: 0.147%.
Still for that read-out and setting: the result for `CCCCNc1nc2c(S(=O)(=O)c3ccc(C)cc3)nnn2c2ccsc12` reads inactive: 7.71%.
Consider `CCOC(=O)CNC(=O)c1cc2c(=O)oc3ccccc3c2s1`, for which the “activity change, negative = inhibition” value is inactive: 2.46%.
Turning to `CCC(C)NC(=O)c1ccc2c(c1)sc1nc(-c3ccc(OC)cc3)cn12` (stereo unspecified), the “activity change, negative = inhibition” value was inactive: -9.38%.
On to `Cc1ccc(N2CC(NC(=O)c3ccc(S(=O)(=O)N(C)C)cc3)CC2=O)cc1C` (stereo unspecified), for which the “activity change, negative = inhibition” value was inactive: 8.35%.
On to `COC(=O)c1sccc1S(=O)(=O)N(CC(=O)Nc1cc(C)ccc1C)c1ccc(C)c(C)c1`, for which the call was inactive.
On the same count and under the same terms, then `COc1ccccc1CNC(=O)CSc1nc(-c2ccc(OC)c(OC)c2)cc(C(F)(F)F)n1`, with “inactive”.
As for `O=C(NCC(c1cccs1)S(=O)(=O)c1cccs1)c1ccc(F)c(F)c1` (stereo unspecified), the “activity change, negative = inhibition” value was inactive: 9.72%.
Still for that read-out and setting: then `CCOc1ccc(CCNC(=O)c2ccc3c(c2)N(Cc2ccc(F)cc2)CCS3)cc1`, with inactive: 4.89%.
In the case of `O=C(Cn1cc(S(=O)(=O)Cc2cccc(Cl)c2)c2ccccc21)Nc1ccccc1C(F)(F)F`, the molecule was classed as inactive.
For the molecule `O=C(CSc1nc2c([nH]c3ccccc32)c(=O)n1-c1cccc(Cl)c1)N1CCCC1`, the molecule was called inactive.
